About 150 (0.041%) of roughly 370,000 compounds were called active. Inconclusive means that the source gave no clear call. Such entries were picked first, then a sample of the others. Calls follow the shape of the dose curve; as a rule, active = well fitted inhibition curve with a large enough effect; inconclusive = small, poorly fitted or top-dose-only effect; inactive = flat fitted curve, though single readings scatter. Potencies of inconclusive entries are left out as doubtful fits.
target: Beta-lactamase (Escherichia coli (strain K12)) (UniProt P00811); assay: qHTS Inhibitors of AmpC Beta-Lactamase (assay with detergent); settings: AmpC hydrolysis of nitrocefin, absorbance 480 nm, 0.01% Triton; series mostly up to 114 µM; also: nearly all actives have a fitted effect of over 25% in size
Procedure, shortened: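 AmpC (5.3 nM in the dispensed reagent) in 20 mM phosphate pH 7.0 with 0.01% (detergent screen) or 0.0001% Triton X-100 was preincubated with compounds for 15 min at room temperature. Nitrocefin was then added from an 800 uM solution, and hydrolysis was followed at 480 nm.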
Potency is read from the fitted curve at half-maximal effect; tags tell the direction and shape of the fitted curve.

Sequence of UniProt P00811 (P00811 whole entry, looked up): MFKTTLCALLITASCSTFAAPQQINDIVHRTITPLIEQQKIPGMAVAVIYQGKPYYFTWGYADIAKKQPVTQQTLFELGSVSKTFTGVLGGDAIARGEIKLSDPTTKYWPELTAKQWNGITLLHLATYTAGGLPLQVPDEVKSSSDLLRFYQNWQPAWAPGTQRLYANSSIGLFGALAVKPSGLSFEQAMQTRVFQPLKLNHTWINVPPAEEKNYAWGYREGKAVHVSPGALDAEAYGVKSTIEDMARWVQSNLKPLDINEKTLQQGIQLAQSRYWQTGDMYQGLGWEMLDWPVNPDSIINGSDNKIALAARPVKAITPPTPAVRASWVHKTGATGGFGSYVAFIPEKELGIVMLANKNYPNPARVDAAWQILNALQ

SMILES	Potency
Cc1cc(C(=O)C(=O)N(C)C)c(C)n1-c1ccc(Cl)c(Cl)c1	inconclusive [inhibitor, full curve, poor fit]
Cc1cccc(NC(=S)NC2CCCC2)c1	inactive
Cc1ccc(CNC(=O)NC23CC4CC(CC(C4)C2)C3)cc1	inconclusive [inhibitor, partial curve]
Cn1c(=O)c2c(SC3CCCC3)nc(C3CC3)nc2n(C)c1=O	inconclusive [inhibitor, partial curve, poor fit]
COc1ccc(OC)c(NC(=O)CN(c2ccc(OC)c(Cl)c2)S(C)(=O)=O)c1	inconclusive [inhibitor, partial curve, poor fit]
COc1ccccc1CNC(=O)CSCc1nc(-c2ccc(OC)c(OC)c2)oc1C	inconclusive [inhibitor, partial curve]
CCN(CC)S(=O)(=O)c1ccc(C)c(NC(=O)CNc2cccc(S(=O)(=O)N3CCOCC3)c2)c1	inconclusive [inhibitor, full curve, poor fit]
Cc1nnc(SCC(=O)N2CCOCC2)n1C	inconclusive [inhibitor, full curve, poor fit]
Cc1ccc(N(C(=O)Nc2ccccc2)C2=NCC(C)S2)cc1 (stereo unspecified)	inactive
Cc1ccc(NC(=O)CN2C(=O)c3ccccc3S2(=O)=O)c(C)c1	inconclusive [inhibitor, full curve, poor fit]
OC(c1ccccc1)C1CN(Cc2ccccc2)CCC1(O)c1ccccc1 (stereo unspecified)	inconclusive [inhibitor, full curve]
Cc1ccc2oc(-c3cccc(NC(=S)NC(=O)c4cccs4)c3)nc2c1	inactive
COc1ccc(NC(=O)[C@@H](NC(=O)N2C[C@H]3C[C@@H](C2)c2cccc(=O)n2C3)C(C)C)cc1	inconclusive [inhibitor, single point]
C#CCOCCOCCOCCNc1nc(N2CCN(C(=O)CCCCCCCCCCNC(=O)[C@H]([C@@H](C)CC)n3cc(CCCCCN)nn3)CC2)nc(N2CCN(C(=O)CCCCCCCCCCNC(=O)[C@H](CO)n3cc(CCCCCN)nn3)CC2)n1	inconclusive [inhibitor, single point]
O=C(O)Cc1ccc2c(c1)N(S(=O)(=O)c1cccc(C(F)(F)F)c1)CC(C(=O)O)O2 (stereo unspecified)	inconclusive [inhibitor, full curve, poor fit]
N#Cc1c(SCC(=O)OCc2ccccc2)nsc1SCC(=O)OCc1ccccc1	inconclusive [inhibitor, full curve, poor fit]
CCOC(=O)C1=C(CSc2nc3ccccc3s2)NC(=O)NC1c1cc(C)ccc1C (stereo unspecified)	inactive
O=C(Nc1nnc(-c2ccc3c(c2)CCCC3)o1)c1ccccc1	inactive
Cc1cc(NC(=O)CCCOc2ccc(Cl)cc2Cl)no1	inconclusive [inhibitor, single point]
Oc1ccccc1-[n+]1c(-c2ccccc2)cc(-c2ccccc2)c(O)c1-c1ccccc1	inconclusive [inhibitor, single point]
O=C(CSc1nnnn1-c1ccccc1)N1N=CCC1c1ccccc1 (stereo unspecified)	inconclusive [inhibitor, partial curve]
Cc1ccccc1-c1nnc(SCC(=O)N(C)c2c(N)n(Cc3ccccc3)c(=O)[nH]c2=O)n1C	inconclusive [inhibitor, full curve, poor fit]

SMILES	Potency
Cc1cccnc1NC(=S)Nc1ccc(Br)cc1Cl	inactive
Cc1cc(-c2ccccc2)nc(N/N=C/c2ccc(O)cc2)n1	inactive
COc1ccc(OC)c(NC2c3ccccc3C(=O)N2Cc2ccc3c(c2)OCO3)c1 (stereo unspecified)	inconclusive [inhibitor, full curve, poor fit]
N#Cc1ccccc1NC(=O)c1ccc(-c2ccccc2Cl)o1	inactive
CC(C)OC(=O)CSc1nnc2n1C(C)(C)Cc1ccccc1-2	inactive
Cc1ccc(S(=O)(=O)Cc2ccc(C(=O)NCc3ccc4c(c3)OCO4)o2)cc1	inactive
Cn1ncc2c(Nc3ccc(-c4ccccc4)cc3)ncnc21	inconclusive [inhibitor, full curve, poor fit]
CC(C)n1c(SCC(=O)NC2CC2)nnc1C1CC1	inconclusive [inhibitor, partial curve]
Cc1ccc(-c2cc3c(N4CCN(c5cc(C)ccc5C)CC4)nccn3n2)cc1	inactive
CCOC(=O)N1CCN(c2c(-c3ccc(C)cc3)c(=O)c2=O)CC1	inconclusive [inhibitor, partial curve, poor fit]
Cn1c(=O)c2sccc2n2c(CCCC(=O)Nc3ccc(Oc4ccc(Cl)cc4)cc3)nnc12	inactive
Cc1cccc(NC(=O)c2cc3ccccc3oc2=O)c1	inconclusive [inhibitor, partial curve, poor fit]
O=C(c1cc2ncc(Br)cn2n1)N1CCOCC1	inconclusive [inhibitor, full curve, poor fit]
Cc1ccc(OCc2cc(C(=O)NCc3cc(F)ccc3C)no2)cn1	inconclusive [inhibitor, full curve, poor fit]
CCc1ccc(-n2c(=O)c3c(C)c(C(=O)N(C)C)sc3n(Cc3ccccc3F)c2=O)cc1	inactive
O=C(N1CCCCCC1)N1CCN(S(=O)(=O)N2CCOCC2)CC1	inconclusive [inhibitor, partial curve]
Cc1ccc(NC(=O)COC(=O)CN2C(=O)c3ccccc3C2=O)cc1	inconclusive [inhibitor, partial curve, poor fit]
COc1ccc(-n2c(C)c(C)c3c(NCCCN(C)C)ncnc32)cc1	inactive
CCN1CCCC1CNC(=S)Nc1ccc(C(C)=O)cc1 (stereo unspecified)	inconclusive [inhibitor, single point]
CCCCN1C(=O)C(=O)N(CC(=O)c2cc(C)n(-c3cc(C)on3)c2C)C1=O	inconclusive [inhibitor, partial curve, poor fit]
CCOC(=O)c1ccc(NC(=O)C2C3CCC(C3)C2C(=O)O)cc1 (stereo unspecified)	inconclusive [inhibitor, partial curve]
COc1ccc(CCNc2ccc(S(=O)(=O)N3CCCC3)cc2[N+](=O)[O-])cc1	inactive

SMILES	Potency
COc1ccc(OC)c(C2C(C#N)=C(N)Oc3c2c(C)nn3-c2cccc(Cl)c2)c1 (stereo unspecified)	inconclusive [inhibitor, full curve, poor fit]
COc1ccc(C2CC(C(F)(F)F)n3ncc(C(=O)NCC4CCCO4)c3N2)cc1OC (stereo unspecified)	inconclusive [inhibitor, partial curve, poor fit]
O=C(O)c1ccc(COc2ccccc2/C=C2/NC(=O)N(c3cccc(Cl)c3)C2=O)cc1	inconclusive [inhibitor, partial curve]
Cc1cc(-c2ccc(C)c(S(=O)(=O)Nc3cccc(C#N)c3)c2)on1	inactive
CC(C)N1CCc2[nH]c(=S)[nH]c(=O)c2C1	inconclusive [inhibitor, full curve, poor fit]
O=C(NCc1ccccc1)c1ccc2c(=O)n(CCCN3CCCC3=O)c(=S)[nH]c2c1	inconclusive [inhibitor, full curve, poor fit]
C=CCNC(=O)CC(=O)N/N=C/c1ccc(F)cc1	inactive
CC(C)(CNC(=O)CNC(=O)c1ccc(Cl)cc1Cl)N1CCOCC1	inconclusive [inhibitor, full curve, poor fit]
CCOC(=O)C1=C(C)N=c2s/c(=C\c3ccc(OCC(=O)O)cc3)c(=O)n2C1c1ccc(OC(C)C)cc1 (stereo unspecified)	inconclusive [inhibitor, partial curve]
CCc1ccc(C(=O)NC(Cc2c[nH]c3ccccc23)C(=O)OCC(=O)c2ccc(Br)cc2)cc1 (stereo unspecified)	inactive
CC(C)(C)c1ccc(CSc2nnc(-c3ccccn3)n2Cc2ccco2)cc1	inactive
Cc1ccccc1-c1cc(C(=O)NCc2ccc3c(c2)OCO3)n(CC2CC(c3cccnc3)=NO2)n1 (stereo unspecified)	inactive
Cn1c(=O)n(CCc2ccccc2)c(=O)c2c1nc1n2CCCN1Cc1ccccc1	inconclusive [inhibitor, full curve, poor fit]
COc1ccccc1N1CCN(C(=O)c2cnc(N3CCCCC3)c3ccccc23)CC1	inactive
O=C(Nc1ccc2c(c1)CCC2)c1cccc(S(=O)(=O)Nc2ccccc2Cl)c1	inconclusive [inhibitor, full curve, poor fit]
O=c1[nH][nH]c(C(F)(F)F)c1/C=N/N1CCOCC1	inconclusive [inhibitor, full curve, poor fit]
COc1ccc(-c2cccc(C(=O)Nc3ccc(C)cc3)c2)cc1	inactive
COc1ccc(CCC(C)NCc2ccc(Cl)c(Cl)c2)cc1 (stereo unspecified)	inactive
COc1ccc(NC(=O)C(=O)Nc2cccc3cccnc23)cc1OC	inconclusive [inhibitor, full curve, poor fit]
C[n+]1ccc(/C=C/c2ccc(Br)cc2)cc1	inconclusive [inhibitor, single point]
C/C(CC(=O)Nc1cc(Cl)ccc1Cl)=N\NC(=O)c1ccccc1Br	inconclusive [inhibitor, full curve]
Oc1ccc2ccccc2c1CN1CCN(C/C=C/c2ccccc2)CC1	inactive
